From US20240342305A1 (published 2024) come the findings set out here.

Assay [1] has as its target GPC3 expressed on hepatoma cells (HepG2, Huh-7, SK-Hep-1 GPC3) (human, UniProt P51654 25-554). Description: cell-based or functional assay.
For assay [2], the target named is T1, His-tagged human GPC3 recombinant protein (purchased from Shanghai Rui Jin Biotech Co., Ltd.) (human, UniProt P51654 25-559, limits assumed).
T1 construct: Bought; construct not described; not shown: His tag
Kind of assay: flow cytometry of CAR T cells stained with His-tagged human GPC3 (50 ug/ml), anti-His-tag antibody and FITC secondary. The method, then:
Infected CTL cells were detected by flow cytometry on day 8 of culture for the expression of different chimeric antigen receptors. FACS assays were performed using His-tagged human GPC3 recombinant protein (purchased from Shanghai Rui Jin Biotech Co., Ltd.); the cells were firstly incubated with the protein (50 ug/ml) for 1 hr, washed twice with D-PBS, and Anti-His-tag antibody (1:50 dilution, purchased from Shanghai Reagent Biotechnology Co., Ltd.) was added and incubated for 1 hr and then washed twice with D-PBS and then FITC labeled goat anti-mouse secondary antibody (Shanghai Kangcheng Biotechnology Co., Ltd.), incubated for 50 min, washed with D-PBS for three times, and tested by FACS. Uninfected T lymphocytes was used as a negative control, the positive rates of virus-infected T cells expressing different chimeric antigen receptors are shown in Table 4.

B1: chimeric antigen receptor P7D4-28BBZ (P7D4 scFv-CD28a-CD28b-CD137-CD3 zeta), on T cells (other)
chain: QVQLQESGGGLVQPGRSLRLSCAASGFTFSSYAMHWVRQAPGKGLEWVSAISGSGGSTYYADSVKGRFTISRDNSKNTLYLQMNSLRAEDTAVYYCAKDRRGSHADAFDVWGQGTLVTVSSGGGGSGGGGSGGGGSQSALTQPPSASGSPGQSVTISCTGTSSDVGGYNYVSWYQQYPGKAPKLLIYGNSNRPSGVPDRFSGSKSGTSASLAITGLQAEDGADYYCQSYDSSLRVVFGGGTKVTVLGTTTPAPRPPTPAPTIASQPLSLRPEACRPAAGGAVHTRGLDFACDFWVLVVVGGVLACYSLLVTVAFIIFWVRSKRSRLLHSDYMNMTPRRPGPTRKHYQPYAPPRDFAAYRSKRGRKKLLYIFKQPFMRPVQTTQEEDGCSCRFPEEEEGGCEL[not shown - about 120 residues]
notes: Third generation CAR on human T cells; also called P7D4 scFv-28BBZ
For B1, in assay [1], the “Cytotoxicity (%) on HepG2 cells, effector target ratio 1:1 (LDH release, 18 h)” value was found to be 59.1%; the “Cytotoxicity (%) on HepG2 cells, effector target ratio 1:3 (LDH release, 18 h)” value is 21.9%; the “Cytotoxicity (%) on HepG2 cells, effector target ratio 3:1 (LDH release, 18 h)” value worked out at 85.8%; the “Cytotoxicity (%) on HuH-7 cells, effector target ratio 1:1 (LDH release, 18 h)” value amounted to 48.4%. Also, in assay [1], the “Cytotoxicity (%) on HuH-7 cells, effector target ratio 1:3 (LDH release, 18 h)” value was determined as 17.2% and the “Cytotoxicity (%) on HuH-7 cells, effector target ratio 3:1 (LDH release, 18 h)” value is 75.3%. The “Positive rate of T cells transfection” value in assay [2] stood at 54%.

B2: chimeric antigen receptor P7D4-Z (P7D4 scFv-CD8-CD3 zeta), on T cells (other)
chain: QVQLQESGGGLVQPGRSLRLSCAASGFTFSSYAMHWVRQAPGKGLEWVSAISGSGGSTYYADSVKGRFTISRDNSKNTLYLQMNSLRAEDTAVYYCAKDRRGSHADAFDVWGQGTLVTVSSGGGGSGGGGSGGGGSQSALTQPPSASGSPGQSVTISCTGTSSDVGGYNYVSWYQQYPGKAPKLLIYGNSNRPSGVPDRFSGSKSGTSASLAITGLQAEDGADYYCQSYDSSLRVVFGGGTKVTVLGTTTPAPRPPTPAPTIASQPLSLRPEACRPAAGGAVHTRGLDFACDIYIWAPLAGTCGVLLLSLVIT[not shown - about 120 residues]
notes: First generation CAR on human T cells; also called P7D4 scFv-Z
On to B2, for which, in assay [1], the “Cytotoxicity (%) on HepG2 cells, effector target ratio 1:1 (LDH release, 18 h)” value was determined as 25.9%; the “Cytotoxicity (%) on HepG2 cells, effector target ratio 1:3 (LDH release, 18 h)” value turned out to be 7.2%; the “Cytotoxicity (%) on HepG2 cells, effector target ratio 3:1 (LDH release, 18 h)” value was determined as 48.5%; the “Cytotoxicity (%) on HuH-7 cells, effector target ratio 1:1 (LDH release, 18 h)” value came to 20.2%. Further, in assay [1], the “Cytotoxicity (%) on HuH-7 cells, effector target ratio 1:3 (LDH release, 18 h)” value stood at 5.6% and the “Cytotoxicity (%) on HuH-7 cells, effector target ratio 3:1 (LDH release, 18 h)” value was determined as 42.9%. Besides, the “Positive rate of T cells transfection” value in assay [2] amounted to 65%.

B3: chimeric antigen receptor P7D4-28Z (P7D4 scFv-CD28a-CD28b-CD3 zeta), on T cells (other)
chain: QVQLQESGGGLVQPGRSLRLSCAASGFTFSSYAMHWVRQAPGKGLEWVSAISGSGGSTYYADSVKGRFTISRDNSKNTLYLQMNSLRAEDTAVYYCAKDRRGSHADAFDVWGQGTLVTVSSGGGGSGGGGSGGGGSQSALTQPPSASGSPGQSVTISCTGTSSDVGGYNYVSWYQQYPGKAPKLLIYGNSNRPSGVPDRFSGSKSGTSASLAITGLQAEDGADYYCQSYDSSLRVVFGGGTKVTVLGTTTPAPRPPTPAPTIASQPLSLRPEACRPAAGGAVHTRGLDFACDFWVLVVVGGVLACYSLLVTVAFIIFWVRSKRSRLLHSDYMNMTPRRPGPTRKHYQPYAPPRDFAAYRS[not shown - about 120 residues]
notes: Second generation CAR on human T cells; also called P7D4 scFv-28Z
For B3, in assay [1], the “Cytotoxicity (%) on HepG2 cells, effector target ratio 1:1 (LDH release, 18 h)” value was 35.6%; the “Cytotoxicity (%) on HepG2 cells, effector target ratio 1:3 (LDH release, 18 h)” value worked out at 6.5%; the “Cytotoxicity (%) on HepG2 cells, effector target ratio 3:1 (LDH release, 18 h)” value is 68.2%; the “Cytotoxicity (%) on HuH-7 cells, effector target ratio 1:1 (LDH release, 18 h)” value came to 31.3%. Further, in assay [1], the “Cytotoxicity (%) on HuH-7 cells, effector target ratio 1:3 (LDH release, 18 h)” value was 7.8% and the “Cytotoxicity (%) on HuH-7 cells, effector target ratio 3:1 (LDH release, 18 h)” value worked out at 62.4%. In assay [2], the “Positive rate of T cells transfection” value was found to be 61%.
